Data from the NIST ThermoML archive (doi:10.1016/j.jct.2007.02.009).

Assay: molar heat capacity at constant pressure
Conditions: 101.33 kPa

CC(=O)N(C)C [N,N-dimethylethanamide]
Crystal
Conditions	molar heat capacity at constant pressure [J/K/mol]
5 K	0.228
6.92 K	0.654
7.22 K	0.721
7.62 K	0.856
7.95 K	0.956
8.51 K	1.18
8.93 K	1.36
9.84 K	1.79
10 K	1.83
10.33 K	2.07
10.83 K	2.43
11.29 K	2.742
11.7 K	3.069
12.1 K	3.374
12.61 K	3.72
13.29 K	4.32
13.96 K	4.896
14.26 K	5.14
14.96 K	5.759
15 K	5.81
15.61 K	6.387
16.27 K	7.06
16.97 K	7.732
17.42 K	8.207
18.07 K	8.888
18.72 K	9.611
19.38 K	10.29
20 K	10.93
20.02 K	10.92
21.56 K	12.62
23.94 K	15.34
25 K	16.56
26.36 K	18.13
28.82 K	20.87
30 K	22.16
31.29 K	23.55
33.76 K	26.25
35 K	27.55
36.25 K	28.88
38.9 K	31.36
40 K	32.51
41.64 K	34.1
43.46 K	36.93
45 K	37.34
45.94 K	38.28
48.42 K	40.59
50 K	42.13
50.91 K	42.85
51.46 K	43.5
53.35 K	45.21
55.83 K	47.45
60 K	50.8
60.25 K	51.13
62.19 K	52.56
64.67 K	54.1
67.15 K	55.76
69.64 K	57.42
70 K	57.65
72.11 K	58.89
74.59 K	60.29
77.07 K	61.68
79.55 K	63.16
80 K	63.33
82.02 K	64.43
83.12 K	65.08
85.89 K	66.5
87.54 K	67.33
88.87 K	67.93
90 K	68.54
90.32 K	68.74
91.85 K	69.31
93.29 K	70.17
94.81 K	71.08
97.78 K	72.39
100 K	73.44
100.75 K	73.58
101.54 K	74.26
103.72 K	75.3
106.68 K	76.66
109.65 K	78.11
109.85 K	78.17
110 K	78.3
112.61 K	79.7
115.42 K	80.92
118.23 K	82.25
120 K	83.09
121.2 K	83.39
126.62 K	86.14
129.43 K	87.3
130 K	87.55
130.8 K	88.05
132.43 K	88.71
135.24 K	89.8
138.2 K	91.13
140 K	91.87
141.16 K	92.37
144.13 K	93.62
147.1 K	94.78
147.67 K	95.28
150 K	96.03
150.06 K	96.03
150.47 K	96.03
153.03 K	97.28
153.45 K	97.28
155.99 K	98.44
158.96 K	100
160 K	100.3
161.92 K	101.4
164.85 K	102.1
164.89 K	102.5
166.41 K	103.2
167.72 K	103.5
169.39 K	104.4
170 K	104.6
170.51 K	104.8
173.48 K	106.3
176.44 K	107.3
179.4 K	108.5
180 K	108.8
182.37 K	109.7
185.33 K	111
188.29 K	112.3
190 K	113.1
191.26 K	113.7
194.22 K	115
197.19 K	116.2
198.32 K	116.8
199.97 K	117.7
200 K	117.6
202.32 K	118.7
202.75 K	118.7
205.72 K	120.2
206.44 K	120.8
208.68 K	121.8
209.51 K	122
210 K	122.5
212.79 K	123.8
216.21 K	126.5
217.95 K	127.4
219.32 K	127.6
220 K	128.2
220.71 K	128.8
220.98 K	128.4
222.21 K	129.5
222.65 K	128.8
222.94 K	129.4
223.63 K	130.1
223.68 K	130
226.52 K	131.4
226.59 K	131
226.87 K	132
227.31 K	131.5
229.5 K	132.3
229.7 K	132.6
230 K	133.7
230.65 K	134.2
230.87 K	134.2
230.97 K	134.3
232.41 K	134.1
232.93 K	135.1
233.15 K	135
234.73 K	137.4
234.88 K	135.6
235.31 K	136.9
236.3 K	137
237.01 K	139
237.7 K	139.8
238.2 K	139.8
238.37 K	140.1
238.79 K	141.8
239.42 K	143.3
240 K	138.8
240.09 K	142.6
240.59 K	144.8
241.4 K	144.6
242.01 K	145.3
250 K	144
254.23 K	146.1

Liquid, Vacuum adiabatic calorimetry
Conditions	molar heat capacity at constant pressure [J/K/mol]
249.41 K	166.9
252.43 K	167
253.91 K	167.9
254.23 K	167.7
255.94 K	167.5
256.94 K	168.2
259.44 K	167.8
260 K	168.5
260.45 K	168.7
260.47 K	168.7
263.48 K	169.1
263.99 K	169.4
265.33 K	169.2
267.51 K	169.5
267.87 K	169.4
270 K	169.6
271.02 K	169.8
274.3 K	169.7
274.53 K	170.2
274.54 K	169.9
276.6 K	169.9
278.04 K	170.5
280 K	170.5
280.12 K	170.4
280.93 K	170.9
281.54 K	170.8
284.16 K	170.9
284.94 K	170.9
285.04 K	171
288.18 K	171.2
288.53 K	171.7
288.92 K	171.3
290 K	171.6
292.01 K	172.8
292.02 K	172.1
292.2 K	171.7
292.89 K	171.8
294.08 K	172.1
295.5 K	172.7
296.21 K	172.1
296.85 K	172.4
298.09 K	172.6
298.15 K	172.7
298.96 K	173.2
300 K	173
300.21 K	172.9
300.79 K	173.2
302.08 K	173.4
302.42 K	173.6
304.19 K	173.5
304.71 K	173.6
305.86 K	174.2
306.05 K	174.2
308.16 K	174.3
308.61 K	174.4
309.21 K	174.8
310 K	174.7
310.02 K	174.9
312.13 K	175.1
312.48 K	174.9
312.6 K	175.5
315.97 K	175.9
316.07 K	175.8
316.34 K	175.8
319.33 K	176.5
320 K	176.8
320.01 K	176.8
320.16 K	176.8
322.66 K	177.3
323.96 K	177.9
325.97 K	178.2
327.75 K	178.6
329.23 K	178.7
330 K	179.1
331.51 K	179.5
332.48 K	179.5
335.71 K	180.6
340 K	181.6
